This is one part of the list.
T1: UNK ZnF1-3 (human, UniProt Q9C0B0 31-174)
T1 sequence: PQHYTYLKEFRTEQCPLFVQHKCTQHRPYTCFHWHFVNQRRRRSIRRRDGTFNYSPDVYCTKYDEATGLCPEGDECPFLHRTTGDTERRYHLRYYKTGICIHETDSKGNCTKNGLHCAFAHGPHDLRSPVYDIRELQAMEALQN

B1: chr6:145166005:145166006:-_ENSMUSG00000030265_ENSMUST00000032399|mus_mus|FALSE|FALSE (ssRNA)
RNA: GGGAGUUCUACAGUCCGACGAUCCAGUAUUACACAGAAGUUAUUGAGUAUAAAUUCACCUUUAAAUAACUUUUGGGUUUAAAAAAUGACUGCAUAAUUCUCAAUAAAUCACUACUUUUUAACAAAUGGAAAUUAGUUAAAUUUCAACAGAGGAUUGAGCAUCA
B2: chr16:14738297:14738298:+_ENSG00000103429_ENST00000261658|hu_hu|FALSE|FALSE (ssRNA)
RNA: GGGAGUUCUACAGUCCGACGAUCGUUCAAGGUGGUGGGGUUAACCAGGAUGUCGUAGCAGCAGUGGCAAGAAAAUUCACUAACAGAAAUCUGAGGGCCGGUGCUUUUGAGAGGUUCAUCUCUCUCAAGGUCCAUUGUGUUCACCAACAGAGGAUUGAGCAUCA
B3: 99152206_99152609_738_CDS_ENSG00000040933_ENST00000545415|human|control|control (ssRNA)
RNA: GGGAGUUCUACAGUCCGACGAUCAGAGCCCAGUAAAUACAUUGUUCCCUGAGAUCUAUCUUUGACAUCAUACACGGAGAGUUUGACUUGUGUCAUCUGAUUGAUAAGAGAGUCUUGAAAGAAGGCAAUACUGCUUAGAAAUAUCAACAGAGGAUUGAGCAUCA
B4: chr2:173429262:173429263:+_ENSG00000152256_ENST00000410055|hu_hu|FALSE|FALSE (ssRNA)
RNA: GGGAGUUCUACAGUCCGACGAUCGCUCUCCUUGUAUUCAAUCACACCCUGGGCCAUUGUGGGAAUGACAUCAUUGUGUCGGUUUCUGAUCCGUAUCACAGUAUCUGUAAAGUCAUAAAUAGCUUUAGCAUCCUCAGCACUUUUCAACAGAGGAUUGAGCAUCA
B5: chr11:31955072:31955073:+_ENSMUSG00000020297_ENSMUST00000020537|mus_hu|FALSE|FALSE (ssRNA)
RNA: GGGAGUUCUACAGUCCGACGAUCUUUGUGCUUAUAGACGAAUCCCUCUGGGCAGCUGUGAUCAUAGGUGAAGGCUUUGUAAACCACCAGGAACACGAUGCACGCAAGGAAAGCUAGGGCCAGGCUGACAAGGAUGGUGACCGUCAACAGAGGAUUGAGCAUCA
B6: chr17:65740002:65740003:+_ENSG00000130935_ENST00000581375|hu_hu|hu_hu_hu_mus_False|1_8 (ssRNA)
RNA: GGGAGUUCUACAGUCCGACGAUCAACAAAUCUUUCUUCCCUGGACGAACAGGAAGAUUCAUAUUAAAAAAAAUAUAUAUCCAUCAAGUUAGGUGUGGUGGCCACACCUUUACUCCCAGCACUUUGGGAAUAUAAUCCUCUAUUCAACAGAGGAUUGAGCAUCA
B7: chr15:25616465:25616466:-_ENSG00000114062_ENST00000438097|hu_mus|FALSE|FALSE (ssRNA)
RNA: GGGAGUUCUACAGUCCGACGAUCAGCUUUGCAAAAUAAUGGCAACGCCAUUUCCAGAUAUUCAGGACUGUGGAGAUUACUAUUCUCCAUUACAAUAAUGAACAAAUUGAGAUAAUUAGGAUCUCGAGUAUACACAUUAUGAUACAACAGAGGAUUGAGCAUCA
B8: chr12:79978091:79978092:+_ENSMUSG00000021116_ENSMUST00000071230|mus_mus|motif|central (ssRNA)
RNA: GGGAGUUCUACAGUCCGACGAUCGCUCUCCAGCUGCUCAUCCUUGGUAUAUUCUAAUACCUCAGCAACAUGGCGAAGAAUGCGGUAAACAGUUUUGGAUUUUGUGAAUUUGUCCUCACAUUUGAUUGCUUCCUCUGGAGAAACCAACAGAGGAUUGAGCAUCA
B9: chr1:122009976:122009977:-_ENSMUSG00000026385_ENSMUST00000027634|mus_mus|motif|central (ssRNA)
RNA: GGGAGUUCUACAGUCCGACGAUCAAUUGAUUGUAGGUAAAAACUACAGAGGGAGGAGGAGCAGAGGUUAACGCUGGCCCGGAUGUAUCACAGCCAUAUCAUCUACAUUAGAAAAAACCAAGGCAUUAUGUCCUCACAGGUCACCAACAGAGGAUUGAGCAUCA
B10: chr5:128440902:128440903:+_ENSG00000066583_ENST00000173527|hu_mus|hu_hu_hu_mus_True|88_108 (ssRNA)
RNA: GGGAGUUCUACAGUCCGACGAUCUUGAACCGUGCUCCCAAGUCCUUUAGGGUAUUGUUCCGUUAUGAUAACUGGAAUCCCUAAGAUCCGAGCUCCUUGCAACAGUCUCUGUCCCACACUAAUGAUGUCCCCAAAGUAUUUGAUCAACAGAGGAUUGAGCAUCA
B11: chr17:30807568:30807569:+_ENSG00000108671_ENST00000457654|hu_hu|FALSE|FALSE (ssRNA)
RNA: GGGAGUUCUACAGUCCGACGAUCGUAGAGGGAAUCCACUACUUUGCUCAUGUUCUGAAUUGUUUCCAGAGCAGCUUCGUAAGUUUUAUCUACUGGGGGUUCAUCGAAAAUAAUCAGGACACCCUCCCCCUGGUCCAAAAUCCCCAACAGAGGAUUGAGCAUCA
B12: chr5:22955990:22955991:+_ENSMUSG00000029004_ENSMUST00000094962|mus_hu|motif|central (ssRNA)
RNA: GGGAGUUCUACAGUCCGACGAUCUGCAUUGGUAUCCAAAACACUGGGGCAUGCCAGCCACAGUGCUCAUUGCAAACAUCGGAGUGCAUCCACAAACCCAUGAGAUGUCUGGUAAAUCUGAGGUCCAAGAAAGAAUAAAUGUCUCAACAGAGGAUUGAGCAUCA
B13: chr6:133136146:133136147:+_ENSG00000112306_ENST00000230050|hu_mus|motif|central (ssRNA)
RNA: GGGAGUUCUACAGUCCGACGAUCACACAGAUGGGCUUGGCGCUUGUCUAAGGCUUUGGCAGCUUCGCGUAUGCCACGUGCGGGGCCAUCGUGGAUGAGGGCGGUCUUCAGCACCUCUUGUAGAGCAGUGUUGACGUCCAUUACCAACAGAGGAUUGAGCAUCA
B14: chr17:62496765:62496766:-_ENSG00000108654_ENST00000581693|hu_hu|FALSE|FALSE (ssRNA)
RNA: GGGAGUUCUACAGUCCGACGAUCUGCUUGAUUAGCUUCACGAAGCACAGAGAUAAGGUCGCUCACUUGCUUUAUGUUAUUAGGUGUAAAGAAAGUGUAUGCUGUGCCUGUUUUGGUACUGCGAGCAGUUCUUCCAAUUCGAUGCAACAGAGGAUUGAGCAUCA

What follows are binders tested against T1, UNK ZnF1-3 (assay: nsRBNS (natural sequence RNA bind-n-seq); RBNS binding buffer (assumed for nsRBNS): 25 mM Tris pH 7.5, 150 mM KCl, 3 mM MgCl2, 0.01% Triton X-100, 500 ug/ml BSA, 20 U/ml SUPERase-In, 4 C; UNK is unkempt and MSI1 is Musashi-1; names of the RNAs are library labels; protein concentration not given here; high values mean tight binding).

Question: B1 was tested. Which binding signal did it give?
Answer: 2.63 enrichment R

Question: B2 was tested. Which binding signal did it give?
Answer: 1.1 enrichment R

Question: With B3 as the binder, how does the binding signal read?
Answer: 1.08 enrichment R

Question: For B4, which binding signal is on record?
Answer: 1.01 enrichment R

Question: Which binding signal does the source give for B5 here?
Answer: 1.32 enrichment R

Question: How did the binding signal turn out when B6 was run?
Answer: 0.918 enrichment R

Question: Which binding signal does the source give for B7 here?
Answer: 0.948 enrichment R

Question: B8 was tested. Which binding signal did it give?
Answer: 0.601 enrichment R

Question: B9 was tested. Which binding signal did it give?
Answer: 2.46 enrichment R

Question: With B10 as the binder, how does the binding signal read?
Answer: 0.749 enrichment R

Question: How did the binding signal turn out when B11 was run?
Answer: 1.02 enrichment R

Question: How did the binding signal turn out when B12 was run?
Answer: 1.28 enrichment R

Question: How did the binding signal turn out when B13 was run?
Answer: 0.973 enrichment R

Question: How did the binding signal turn out when B14 was run?
Answer: 0.558 enrichment R

Source: PMC12136788
